The source gives no read counts; variants with many changes may rest on few reads.
B1: OR4K15 (parent)
chain: GUUAACGGUCAUAGGCCAUGGAAACUAGGAGCACCAUUUCGCUGCCAGUGAAGAAAUGAACAAAGAAAAUCUGGGCCAGGCAGGCAUCAAAAGAAAUAGUCUUGCGCUCAACCAGAAAGUCUGUAAUCAUUUUAAGGGUA

Variants of: B1
Assay: self-cleavage, relative activity (ratio to wild type); higher = more cleavage; in vitro, sequencing; the parent is a self-cleaving ribozyme

Variant	self-cleavage
A33U A68G U108C	0.01
C34U G115A A135G	0.16
A36G U57A A63G U70C A90G	1.17
A33G U57C A86G	1.06
U37C U39C A95G G137A	1.96
C35U U49C G119A	0.7
A33G U57A U122C	0.96
U37C A64G A94G	0.66
A33U U39A A126C	0.66
A33G U72C A114U A117G	0.01
A36U U39A A118G	2.15
A33U A52G A60G	1.22
A36G U87C A111U A114G	0.04
U37C A55G G123A A129G	0.34
C34U U43A A60G	1.83
U37C A59U A60G U100C	2.15
A36G U103C A125G	0.3
U37C A78G A95G A118U	0.03
A33U A111U U130C	0.06
U37C A51U A90U	0.98
U37C A59G U108A	0.04

Variant	self-cleavage
A33U A82G A89U A94G	1.11
A33G U49C A114G	0.14
C34U U39C U43A A111U	0.14
C34U A56G U122C	1.41
U37C U39C C105U A117U A129G	0
A36U A90C A91G A114U	0.1
A36U A90G A135G	1.55
U37C U39C U70C	1.31
U37C A52G A114G U127C	0.27
A36G A47U A117G	1.18
U37C A56G A67G U70C U132C	0.86
C34U A95G A118G U132C G136U	1.05
C35U A52G G79A	0.21
C35A A56G A78U U103G C112U A117G U130C	0
U37C A96G A129G	1.24
U37C A86U A110G A126G	0.06
U37A U87C U120C U124C A125G	0.85
U37C A62U U72A U100C A118G	0.21
C35U A86G A92U A117G U124C	0.65
A36U U49C G58U	1.47
U37C A51G A60G	0.28

Variant	self-cleavage
A36G U43A G106A	0.02
A33U A55G U103C U131C	0.86
A36C A69U A86G U100C U102C	2.52
A33U A114G G115A	0.13
A33U U39A A51G U124C A125G	1.01
U37C U39C U122C A129G	1.09
A36C A60C A66G	1.23
U37C A51G A59G A95C	0.85
C35A A55G A60G	0.23
U37C U39C G73U G136A	0.25
U37C U39A A68G U100C A114G	1.17
U37C A52G U102C	1.59
C34U C35U A95G	2.69
U37A U43C A54G A56G U87C A89G	0.77
A36U A52G A86G U102C	1.91
C35G C40U U70A	0.64
C34G A96G A125G	0.57
U37C A62G A78G	0.08
A36U U132C U139C	1.77
U37A A63G A91U U130G	1.77
U37C A62C A64G	0.74

Variant	self-cleavage
A33U A51U A96G U132C	1.92
A33U U49A U124C	0.73
U37A A51G A69U A78G	0.26
A36G U38C A68G	2.12
C35U A47G U131C	0.58
A36G A66G U103C	0.85
C35G U38A A56G A82U U102A A118G	0.18
U37C A59G A62G A66G A125G	0.48
A36G U38C A52G	1.45
U37C U38C A62G A96U A117G	2.39
A33U A59G A90G	1.04
U37C A52U U124C	0.71
U37C A126G U131C	1.29
U37C U39C G119C	1.32
A33U A90G A116G	0.64
U37C A47G A110U	1.69
A33U U70C A98G A135U	0.19
U37C A51U A78G A91U A140G	0.19
C34U A56U A118G	1.12
U37C G73U A116G A126G	0.01

Source: the RNAGym collection of RNA variant scans (doi:10.7554/elife.90254)
